# ± gives the standard deviation. In all, about 3,700 sequences were measured (“pre-steady-state target cleavage rate”: median about 0.02, highest 2% from about 0.23 on). This is a selection; strong and weak results do not stand in their true shares.
# System: MILI (PIWIL2) piRISC loaded with Kctd7 piRNA (26 nt)
# Assay: pre-steady-state target cleavage rate (min^-1); MIWI and MILI are mouse PIWI proteins and EfPiwi is from a freshwater sponge; tags in brackets are library labels; higher = faster piRNA-guided slicing of the target
# Details: guide: Kctd7 piRNA 5'p-UGUUAAUCUCUCAGAGAAGGUGACAG; auxiliary factor: 500 nM mouse GTSF1
# How it was run: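 In HEPES–potassium acetate buffer at 33 °C, […] transcribed, DNA-blocked target RNA library was mixed with 1 nM active affinity-purified piRISC carrying one synthetic guide, with or without 500 nM GTSF1 partner protein, for 0–8 or 0–960 min. Uncleaved targets were sequenced and normalised to depth and to weakly complementary targets; three trials were pooled and k3 was capped at 0.0001 min^-1. The pre-steady-state cleavage rate followed from a burst-and-steady-state fit.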
# 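Note: 1 nM active piRISC with 0.1 nM target library at 33 °C single turnover.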
row,Sequence,pre-steady-state target cleavage rate
1,UAGUCUGCCACCUUCUCUGAGAGAUUAACA,0.205 ± 0.012
2,UAGUGACUCACCUUCUCUGAGAAAUUAACA,0.113 ± 0.02
3,UAGUGACUCACCUAGUCUGAGAGAUUAUGA,0.0127 ± 0.0062
4,UAGUGACUCACACUUCUCUGAGAGAUUAACA,0.0432 ± 0.0076
5,UAGUGACAGACCUUCUCUGAGAGAUUACCA,0.0531 ± 0.017
6,UAGUGACAGUGCUUCUCUGAGAGACUUAACA,0.00395 ± 0.003
7,UAGUGACUGACCUUCUCUGAGAGAUUAAGA,0.0471 ± 0.015
8,UAGUGUGUCACCUUCUCUCACAGAUUAACA,0.0199 ± 0.009
9,UAGUGACACACCUUCUCUGAGAGAUUAAGA,0.0905 ± 0.018
10,UAGUGACAGUGCUUCACUCAGAGAUUAACA,0.00757 ± 0.0045
11,UAGUCUGUCCACCUUCUCUGAGAGAUUAACA,0.15 ± 0.018
12,UAGUGUGUCACGUUCUCAGAGAGAUUAACA,0.092 ± 0.0075
13,UAGUGACACACCUUCUGUGAGACAUUAACA,0.0578 ± 0.012
14,UAGUGACUCACGUUCUCUGUGAGAUUAACA,0.0244 ± 0.0029
15,UAGUGUGUCAGGAUCUCUGAGAGAUUAACA,0.0599 ± 0.0091
16,UAGUGACAGUGCUUCACAGAGAGAUUAACA,0.0054 ± 0.0031
17,UAGUGACACAGCUUCUCUGAGAGAUUAUGA,0.006 ± 0.0035
18,UAGUGACAGACCUUCUCUGAGAGAUUACA,0.0601 ± 0.014
19,UAGUGACAGACCUUCUUGAGAGAUUAACA,0.00879 ± 0.0048
20,UAGUCACACACCUUCUCUGAGAGAUUAACA,0.168 ± 0.011
21,UAGUGUGUCACGAUCUCUGAGAGAUUAUGA,0.0104 ± 0.0046
22,UAGUGACACAGCUACUCUGAGAGAUUAACA,0.038 ± 0.0055
23,UAGUGUGACACCUUCUCUGAGAGAUUAACA,0.214 ± 0.017
24,UAGUGUGUGACCUUCUCUGAGACAUUAACA,0.026 ± 0.0085

row,Sequence,pre-steady-state target cleavage rate
1,UAGUGACAGACCUUCUGUGAGAGAUUAUCA,0.0073 ± 0.0047
2,UAGUGACUUCACCUUCUCUGAGAGAUUAACA,0.199 ± 0.011
3,UAGUGACAGACUCUUCUCUGAGAGAUUAACA,0.0442 ± 0.0067
4,UAGUGUGUCAGCUUGUCUGAGAGAUUAACA,0.133 ± 0.011
5,UAGUGACACACUUUCUCUGAGAGAUUAACA,0.13 ± 0.0093
6,UAGUGACACACCUUCUCUGAGAGAGUUAACA,0.22 ± 0.028
7,UAGUGACAGUCCUUCAUCUGAGAGAUUAACA,0.00341 ± 0.0033
8,UAGUGACAGUGCUUCUCUGAGGGAUUAACA,0.00586 ± 0.0022
9,UAGUGACACACCUUGUCUGAGAGUUUAACA,0.0219 ± 0.012
10,UAGUGACUCACCUUGAGUGAGAGAUUAACA,0.0123 ± 0.0045
11,UAGUGUGUCACGAUCUCUGAGAGAUUAAGA,0.0396 ± 0.009
12,UAGUGAGUGACCUUCUCAGAGAGAUUAACA,0.121 ± 0.018
13,UAGUGUGUCACCUUCUGAGAGAGAUUUUGA,0.01 ± 0.0057
14,UAGUGUGUGACCUUCUGUGAGAGAUUAACA,0.139 ± 0.021
15,UAGUGACAGUCCUACACUGAGAGAUUAACA,0.0107 ± 0.0031
16,UAGUGACACUCCUUCUCUGAGAGAUUAUGA,0.00572 ± 0.0042
17,UAGUGACUCACCAUCUCUCAGAGAUUAACA,0.0257 ± 0.0053
18,UAGUGACACUCCUUCUGUGAGAGAUUAACA,0.0854 ± 0.012
19,UAGUGUGUGACCUUCUCUGAGAGAUUAAGA,0.0865 ± 0.018
20,UAGUGAGUCACCUUCUCUGAGAUGAUUAACA,0.153 ± 0.022
21,UAGUGACACAGGAUCUCUGAGAGAUUAACA,0.0138 ± 0.002
22,UAGUGACUCAGCUUCUCUGAGAGAUUAAGA,0.0201 ± 0.0048
23,UAGUGACACACCUACUCUGAGAGAUAAACA,0.0356 ± 0.0096
24,UAGUGACAGUCCUUCUCUGAGAGAGUAACA,0.0137 ± 0.0047

row,Sequence,pre-steady-state target cleavage rate
1,UAGUCUGUGACCUACUCUGAGAGAUUAACA,0.132 ± 0.0063
2,UAGUGUGUCACCUUCUCUGAGAGUAAUUGA,0.0693 ± 0.027
3,UAGUGACAGUCCUUGAGUGAGAGAUUAUGA,< 0.0001
4,UAGUGAGUCACCUUCUCUGUGAGAUUAUCA,0.0358 ± 0.015
5,UAGUGUGUCACCUUCUGUGAGAGAUUUACA,0.0788 ± 0.022
6,UAGUGACAGUGCUUCUCUGAGUCUAAUUGA [g10:g19:cont:t1A],< 0.0001
7,UAGUGACAGUGGAAGUCUGAGAGAUUAGACA,< 0.0001
8,UAGUGACAGUCCUUCUCUGAGAGAUUCAACA,0.0253 ± 0.0094
9,UAGUGACAGUGGAAGAGAGACAGAAUAACA,< 0.0001
10,UAGUCUGUCAGCUUCUCUGAGAGAUUAACA,0.154 ± 0.0074
11,UAGUGACUCACCUUCUCUGAGAGUUUAACA,0.118 ± 0.028
12,UAGUGACUCAGCUUCUCUGAGAGAUUAUCA,0.03 ± 0.0087
13,UAGUGUGUCACCUUCCUCUGAGAGAUUAACA,0.162 ± 0.016
14,UAGUGACAGACCUUCUCUGAGAGUAUAAGA,< 0.0001
15,UAGUGACACACCGUCUCUGAGAGAUUAACA,0.143 ± 0.015
16,UAGUGACAGACCUUGCUCUGAGAGAUUAACA,0.00898 ± 0.0058
17,UAGUGACAGACCUUCUCUGAGAGAUUAAACA,0.126 ± 0.015
18,UAGUGUGUCACCUUCUCUGAGGAGAUUAACA,0.0158 ± 0.0073
19,UAGUGACACACCUUCUCUGUGAGAUUAAGA,0.0129 ± 0.0067
20,UAGUGACAGUCCUUCUCUGUGAGAUUAUCA,0.00722 ± 0.002
21,UAGUGACUGUCCUUCUCUGAGAGAUUAUGA,0.00765 ± 0.0054
22,UAGUCUGUCACCUUCUCUCAGACAUUAACA,0.0408 ± 0.011
23,UAGUGACAGUGGAAGACUGAGUGAUUAUCA,< 0.0001

# — the supplement of paper PMC10338343
